Results on 105 molecules are retold here after PubChem BioAssay AID1240 (Sanford-Burnham Center for Chemical Genomics, 2008).

The campaign covered roughly 50,000 compounds. About 800 (1.6%) showed an effect of 50% or more. Some of the results follow.

In this assay the target is Bcl-2-like protein 10 (Homo sapiens) (UniProt Q9HD36). Description: TR3 peptide-Bcl-B binding displacers, biochemical primary FP assay, phenotype converters (AID 1240).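 Further: 0% = Bcl-B with tracer peptide and DMSO and 100% = tracer peptide lacking Bcl-B.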 Particulars: GST-Bcl-B / FITC-TR3 peptide fluorescence polarization; stronger effect = higher value; compound at 3.75 mg/L.
Sequence of UniProt Q9HD36 (Q9HD36 whole entry, looked up): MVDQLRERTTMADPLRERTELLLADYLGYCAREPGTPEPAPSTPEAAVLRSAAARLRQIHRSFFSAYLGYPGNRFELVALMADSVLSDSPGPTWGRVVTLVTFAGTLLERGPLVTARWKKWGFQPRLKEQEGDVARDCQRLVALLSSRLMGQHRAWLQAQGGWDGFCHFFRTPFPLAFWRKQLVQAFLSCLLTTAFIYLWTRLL
As to `COc1cccc(OCCNC(=O)C(c2ccccc2)c2ccccc2)c1`, the displacement was -14.1%.

As to `Fc1ccc(-c2nnc(-c3ccc(F)cc3)o2)cc1`, the displacement was -1%.

`CCOc1cccc(C(=O)Nc2ccc3nn(-c4ccc(F)cc4)nc3c2)c1`: the displacement is 10.1%.

Turning to `COc1ccc(O/C(=N\S(=O)(=O)c2ccccc2)c2ccccc2)cc1`, the displacement amounted to 7%.

For the molecule `N/C(=N\OC(=O)CCc1ccccc1)c1ccc(Br)cc1`, the displacement came out at 3%.

Consider `COc1ccc(CCNC(=O)/C=C\c2ccccc2)cc1OC`, for which the displacement is 6.7%.

In the case of `O=C1CC(c2ccccc2)CC2=C1C(c1ccc(OCc3ccccc3)cc1)Nc1ccccc1N2` (stereo not given), the displacement was 5.3%.

Consider `CC(C)(C)NC(=O)C(=O)NCc1ccc(Cl)cc1`, for which the displacement was 8.2%.

For `O=C1CS/C(=N/N=C/c2ccccc2[N+](=O)[O-])N1`, the displacement amounted to 1.8%.

For the molecule `CCC(C)NC(=O)Nc1cccc(Cl)c1` (stereo not given), the displacement was determined as 1.6%.

`Cc1cccc(NC(NC(=O)c2ccccc2Cl)C(Cl)(Cl)Cl)c1` (stereo not given): the displacement came to 1%.

Consider `COc1cc2nc(-c3ccc([N+](=O)[O-])cc3)oc(=O)c2cc1OC`, for which the displacement came to 78%.

As for `COc1ccc(NC(=O)C2(C)CC3c4ccccc4C2c2ccccc23)cc1` (stereo not given), the displacement came to 0.2%.

For `COC(=O)C1=C(C(=O)OC)SC(=C2C(=S)C(C)(C)N(C(=O)c3cccc(C)c3)c3ccc(OC)cc32)S1`, the displacement was -4.1%.

For the molecule `COc1cc(C2C3C(C)N(C)C(=O)N(C)C3N(C)C(=O)N2C)ccc1O` (stereo not given), the displacement amounted to 2.6%.

As for `CCOC(=O)C1=C(CC)NC2=C(C(=O)CCC2)C1c1cc(OC)ccc1OC` (stereo not given), the displacement was 3.8%.

For the molecule `O=C(CSC1=NCCS1)n1c2ccccc2c2ccccc21`, the displacement is -3.7%.

Consider `Cc1ccc(/C=N/Nc2cccc3cccnc23)c(O)c1`, for which the displacement is -8.5%.

Regarding `CCOc1ccc(/C=C/c2nc(O)c([N+](=O)[O-])c(=O)[nH]2)cc1`, the displacement was -5.9%.

For `O=C1NC(=O)N(c2ccc(Br)cc2)C(=O)/C1=C/c1ccc2c(c1)OCO2`, the displacement is -17.6%.

On to `Cc1cccc(C)c1NC(=O)CSCC(=O)Nc1ccc2ccccc2c1`, for which the displacement came out at 4.7%.

For the molecule `COc1ccc(C2=C(Nc3cccc([N+](=O)[O-])c3)c3ccccc3C2=O)cc1`, the displacement is 14%.

For `COC(=O)C1=C(C)N(Cc2cccnc2)C(=O)/C1=C\c1cccc(Cl)c1Cl`, the displacement came out at 4.4%.

Turning to `COc1cc(/C=C2\C(=O)NC(=O)N(c3ccc4c(c3)OCO4)C2=O)ccc1OCc1ccccc1F`, the displacement was -17.3%.

In the case of `CCOC(=O)c1c(NC(=O)/C=C/c2ccc(OC)cc2)sc(C)c1C`, the displacement came to 7.3%.

`Cc1sc(NC(=O)CC(c2ccccc2)c2ccccc2)c(C(N)=O)c1C`: the displacement is -2.3%.

On to `Cc1nc2sc(C(=O)c3ccc(F)cc3)c(N)c2c(C)c1C(=O)Nc1ccccc1`, for which the displacement was 0%.

On to `CCOc1ccc(N2C(=O)CC(N3CCC(O)CC3)C2=O)cc1` (stereo not given), for which the displacement was -2.2%.

For the molecule `O=C(/C=C/c1ccco1)Nc1ccc(-c2nc3ncccc3o2)cc1`, the displacement was -8.2%.

Regarding `COc1ccc(NC(=O)CN(c2ccc(Cl)cc2)S(=O)(=O)c2ccccc2)cc1`, the displacement is 2.8%.

Take `COC(=O)COc1ccc(/C=C2\C(=O)C(C(=O)OC)=C(C)N2c2cc(C)cc(C)c2)cc1`: the displacement was -1.5%.

For the molecule `CCN(CC)c1ccc(/C=C2\C(=O)NC(=S)N(c3ccc(Cl)cc3)C2=O)o1`, the displacement stood at 3.2%.

For the molecule `Cc1[nH]n(-c2ccccc2)c(=S)c1C=Nc1ccc(Br)cc1`, the displacement was -11.1%.

Turning to `O=C(NC(=S)NC1CCSC1=O)c1ccc(Cl)cc1Cl` (stereo not given), the displacement is 6.3%.

With `CC(C)CNC(=O)c1cccc(NC(=O)c2ccccc2-c2ccccc2C(=O)O)c1`, the displacement was -3%.

For `Cc1cc(C)nc(NS(=O)(=O)c2ccc(N/C=C/C(=O)c3ccc(Br)cc3)cc2)n1`, the displacement is -13.5%.

Turning to `Cc1ccc(-n2nc3cc(C)c(NC(=O)c4ccc([N+](=O)[O-])cc4Cl)cc3n2)cc1`, the displacement came out at 2.1%.

With `N/C(=N\OC(=O)c1ccco1)c1ccc([N+](=O)[O-])cc1`, the displacement came out at 5%.

For `O=C1CC(c2ccccc2Br)c2c(ccc3ccccc23)N1` (stereo not given), the displacement was determined as 10.5%.

Regarding `CCOc1ccccc1NC(=O)c1c(NC(=O)C(C)(C)C)sc2c1CCCCC2`, the displacement is 3.9%.

On to `CCSc1nc2ccc(NC(=O)c3ccccc3C(=O)N3CCOCC3)cc2s1`, for which the displacement is -1.3%.

`CCOC(=O)c1c(-c2ccccc2)oc2ccc(OCC(=O)OCc3ccccc3)cc12`: the displacement came out at 5.9%.

As for `CC(C)C12CN3CC(C(C)C)(CN(C1)C3c1c(O)ccc3ccccc13)C2=O` (stereo not given), the displacement came to 0.6%.

`COc1ccc(-n2[nH]c(C)cc2=O)cc1`: the displacement is 9.9%.

For `CCNC(=O)N1c2ccc(C)cc2C(C)=CC1(C)C`, the displacement is -1.6%.

For the molecule `COc1cccc(C(=O)Nc2sc(C(=O)OC(C)C)c(C)c2C(=O)OC(C)C)c1`, the displacement is -10.2%.

Consider `Cc1ccc(/C=c2/sc3n(c2=O)C(N)=C(C#N)C(c2ccc(C)o2)C=3C#N)o1` (stereo not given), for which the displacement is -12.7%.

`O=C1c2ccccc2C(=O)c2c1c(-c1ccccc1)nn2-c1ccccc1`: the displacement was -6.1%.

As for `CN(C)c1ccc(NC2=NC3(CCCC3)N=C(N)N2)cc1`, the displacement is -7.4%.

Turning to `O=C(Nc1ccc(N2C(=O)C3C4c5ccccc5C(c5ccccc54)C3C2=O)cc1Cl)c1ccc(Cl)cc1Cl` (stereo not given), the displacement stood at 10%.

Consider `COC(=O)c1ccccc1NC(=O)COc1ccc(-c2ccc(C)cc2)cc1`, for which the displacement worked out at 1.2%.

`COc1ccc(OC)c(NC(=S)NC(NC(=O)Cc2ccccc2)C(Cl)(Cl)Cl)c1` (stereo not given): the displacement is -4.8%.

With `O=C(NCCCO)C(=O)Nc1ccccc1`, the displacement amounted to 13.1%.

As for `CC(=O)NS(=O)(=O)c1ccc(NC(=O)c2cc([N+](=O)[O-])ccc2Cl)cc1`, the displacement is 6.5%.

Turning to `CCN1C(=O)C(=Cc2cccn2-c2ccc([N+](=O)[O-])cc2)C(=O)N(CC)C1=S`, the displacement was found to be 46%.

As for `O=C1c2ccccc2NC(c2ccccc2O)N1c1ccc(Cl)cc1` (stereo not given), the displacement was found to be 14.9%.

With `COC(=O)c1cnn2c(C(F)(F)F)cc(-c3ccc4c(c3)OCO4)nc12`, the displacement is -3.9%.

With `COc1cc(NC(=O)c2cccc(Br)c2)ccc1NC(=O)c1ccco1`, the displacement stood at 9.5%.

For `Cc1cccc(C(=O)NNC(=O)c2ccccc2C)c1`, the displacement is -7.7%.

Consider `Cc1cnc(NC(=O)c2ccc(Cl)cc2Cl)s1`, for which the displacement is 3%.

As for `CC(=O)c1ccc(NC(=S)NC(NC(=O)Cc2ccccc2)C(Cl)(Cl)Cl)cc1` (stereo not given), the displacement was -18.7%.

Turning to `O=C(Nc1ccc(Br)cn1)c1ccccc1SCc1ccccc1`, the displacement turned out to be 12.9%.

With `Cc1ccc(S(=O)(=O)N(Cc2ccc(C(=O)NCCSc3ccccn3)cc2)c2cccc(Cl)c2)cc1`, the displacement is -2.5%.

For `O=C1N=C2N(CCN3CCOCC3)c3ccccc3N2/C1=C/c1ccccc1[N+](=O)[O-]`, the displacement was -1.3%.

Take `O=c1cc(-c2ccccc2)nc(NO)[nH]1`: the displacement came to 11.2%.

For `COC(=O)C1=C(C)N(C)C(C)=C(C(=O)OC)C1c1cccc(Br)c1`, the displacement was -6.4%.

As to `CCOc1ccccc1NC(=O)CN(c1cccc(Br)c1)S(=O)(=O)c1ccccc1`, the displacement is -0.2%.

For `COc1ccc(-c2n[nH]c(=S)n2/N=C/c2sccc2C)cc1`, the displacement is -9.8%.

For the molecule `COc1ccc(N2C(=O)c3ccc(OC)c(OC)c3C2=O)cc1`, the displacement came out at 3.9%.

On to `O=C(CN(c1cccc(Br)c1)S(=O)(=O)c1ccccc1)N1CCOCC1`, for which the displacement was found to be 6.1%.

For `Cc1ccc(C(=O)Nn2c(O)c(C3=c4cc(Br)ccc4=NC3=O)sc2=S)cc1`, the displacement is -22%.

As for `CCN(CC)c1ccc(C(=O)NCc2ccccc2OC)cc1`, the displacement is -7.9%.

In the case of `Cc1ccc(OCC(=O)NNC(=O)c2ccc(Cl)c(Cl)c2)c(C)c1`, the displacement was -3.7%.

Take `CC(C)C12CN3CC(C(C)C)(CN(C1)C3c1ccc(N(C)C)cc1)C2=O` (stereo not given): the displacement came to 12.9%.

Take `O=C(Cc1ccc(Cl)cc1)Nc1ccc(-c2nc3ccccc3s2)cc1`: the displacement was 12.9%.

For `O=C(CC1(C(F)(F)F)NCCN1)c1ccccc1`, the displacement came out at 4.8%.

Turning to `Brc1ccc(-c2cn3c(n2)SCC3)cc1`, the displacement is -8%.

For the molecule `CCC1=NN(C(=O)c2cccnc2)C(O)(c2ccccc2)C1` (stereo not given), the displacement is 16.7%.

Consider `COC(=O)CSc1nc(N)c(C#N)c(-c2ccc(O)cc2)c1C#N`, for which the displacement turned out to be 1.7%.

Take `O=c1c2ccccc2nc2n1CCCN2`: the displacement stood at 7.5%.

In the case of `O=C(NCCO)c1cccc2c1-c1ccc(I)cc1C2`, the displacement was 0.4%.

Turning to `CC(C)CNC(=O)/C(=C/c1ccc(N(C)C)cc1)NC(=O)c1ccccc1`, the displacement is 30.3%.

Take `COc1ccc(Br)cc1/C=C\C(=O)Nc1ccc([N+](=O)[O-])cc1OC`: the displacement came to 4.8%.

As to `Cn1c(=O)c2c(nc(-n3ccnc3)n2C)n(C)c1=O`, the displacement stood at 9.9%.

With `COc1cc(C(=O)Oc2ccc(Cl)cc2C)cc(OC)c1OC`, the displacement was 2.1%.

With `Cc1ccc(N(C(=O)COc2ccc(F)cc2)C2C=CS(=O)(=O)C2)cc1` (stereo not given), the displacement is 4.5%.

As for `O=C(N/N=C\c1ccc(N2CCCC2)c([N+](=O)[O-])c1)c1ccccn1`, the displacement is -11.6%.

For `CCCNC(=S)N1CC2(C)CN(C(=O)C(=O)OC)CC(C)(C1)C2=O`, the displacement is 4.3%.

Take `Cc1ccc(N(CC(=O)NCc2cccnc2)S(=O)(=O)c2ccc(F)cc2)cc1`: the displacement is -13.1%.

Consider `COc1cccc(NC(=O)/C(=C\c2cccc(Br)c2)NC(=O)c2ccccc2)c1`, for which the displacement worked out at 1.1%.

`CCOc1cc(/C=C2\C=C(c3ccc(OC)cc3)OC2=O)ccc1OC(C)=O`: the displacement was 92.4%.

Take `O=C1CC(Nc2ccccc2)C(=O)N1Cc1ccccc1` (stereo not given): the displacement was -8.3%.

As for `COc1cc(/C(C)=N/NC(=O)C(O)(c2ccccc2)c2ccccc2)ccc1O`, the displacement was determined as 5.6%.

With `Cc1cccc(C2(c3cccc(C)c3)CC2C(=O)NCc2ccccc2)c1` (stereo not given), the displacement is -15.9%.

In the case of `Cc1ccc(-n2c(=O)c3c4c(sc3n3c(=S)[nH]nc23)CC(C(C)(C)C)CC4)cc1` (stereo not given), the displacement was 1.1%.

Take `CCOc1cc(/C=C2/C(=N)N3N=C(CC)SC3=NC2=O)ccc1OCc1ccc(F)cc1`: the displacement came to 0.1%.

In the case of `Cc1ccc(NC(=O)c2cccc(N3C(=O)C4C5c6ccccc6C(c6ccccc65)C4C3=O)c2)cc1Cl` (stereo not given), the displacement worked out at 8.6%.

Regarding `CN(C)CCCNC(=O)COc1ccc(Cl)cc1`, the displacement was 6.3%.

As for `COc1cc(C(=O)Nc2ccc(Br)cc2C(=O)c2cc(OC)c(OC)c(OC)c2)cc(OC)c1OC`, the displacement was determined as 22.3%.

Turning to `CC1CCCN(C(=O)c2ccccc2)C1` (stereo not given), the displacement was 7.8%.

As for `COc1ccc(CCNS(=O)(=O)c2ccc(OC)cc2)cc1`, the displacement stood at 8.4%.

Turning to `COc1ccc(Cl)cc1NC(=O)CC(C)C`, the displacement is 7.1%.

As to `CC(=O)N1CC2(C(C)C)CN(C(C)=O)CC(C(C)C)(C1)C2=O`, the displacement stood at 4.1%.

With `COc1ccc(-n2c(O)c(C=Nc3cc(OC)c(OC)c(OC)c3)c(=O)[nH]c2=O)cc1`, the displacement is 25.6%.

`CCOc1ccccc1NC(=O)c1c(OC)cccc1OC`: the displacement is -7.3%.
